# In all, about 2,900 compounds were measured (“NF-kB SEAP reporter activity, fold change vs agonist alone”: median about 0.99, highest 2% from about 2.6 on). The list shows a part of the results.
# What was measured:
# RAW-Dual [1] = experiment: NF-kB SEAP reporter activity, fold change vs agonist alone; cytotoxicity flag (confluency mask): not cytotoxic; higher = enhanced NF-kB activity
# Outline: (§1)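 Reporter activity is given as fold change relative to agonist-alone wells. To measure it, 50 nL of library stock was pin-tooled onto RAW-Dual macrophages (50,000 cells/well, DMEM, 384-well plates), a PRR agonist followed 1 h later, and cells stayed at 37 °C, 5% CO2. Twenty hours on, supernatant was assayed for IRF (QuantiLuc luminescence) and NF-κB (QuantiBlue, 620 nm absorbance), and wells under 70% of agonist-control IncuCyte confluency in both mask sets were marked cytotoxic.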
# RAW-Dual [2] = experiment: NF-kB SEAP reporter activity, fold change vs agonist alone; higher = enhanced NF-kB activity; conditions: cytotoxicity flag (confluency mask): not cytotoxic
# Outline: as §1
# RAW-Dual [3] = experiment: NF-kB SEAP reporter activity, fold change vs agonist alone; cytotoxicity flag (confluency mask): cytotoxic (confluency <70% of control); higher = enhanced NF-kB activity; conditions: agonist: LPS (TLR4) 0.1 ug/mL
# Outline: as §1
# [4] = agonist: ODN 1826 (TLR9) 0.5 ug/mL
# [5] = agonist: Pam2CSK4 (TLR2/6) 0.1 ug/mL
# [6] = agonist: Pam3CSK4 (TLR2/1) 0.1 ug/mL
# [7] = library stock concentration (final ~1000-fold dilution): 10 mM, agonist: MPLA (TLR4) […]
# [8] = library stock concentration (final ~1000-fold dilution): 10 mM, agonist: Imiquimod (TLR7) […]
smiles,measurement,setting,value
CCCCNc1ncc(-c2ccc(CN3CCOCC3)cn2)c(NC2CCC(O)CC2)n1 (centres undefined) (library stock concentration (final ~1000-fold dilution): 2 mM),NF-kB SEAP reporter activity,RAW-Dual [1]; agonist: LPS (TLR4) 0.1 ug/mL,0.765
same,NF-kB SEAP reporter activity,RAW-Dual [1]; [4],0.788
same,NF-kB SEAP reporter activity,RAW-Dual [1]; [5],0.814
same,NF-kB SEAP reporter activity,RAW-Dual [1]; [6],0.886
CCCCNc1ncc(-c2ccc(CN3CCOCC3)cn2)c(NC2CCC(O)CC2)n1 (centres undefined),NF-kB SEAP reporter activity,"RAW-Dual [2]; library stock concentration (final ~1000-fold dilution): 2 mM, agonist: Imiquimod (TLR7) […]",0.899
same,NF-kB SEAP reporter activity,"RAW-Dual [2]; library stock concentration (final ~1000-fold dilution): 2 mM, agonist: MPLA (TLR4) […]",0.926
O=C(O)CCC(O)C(=O)O (centres undefined) (library stock concentration (final ~1000-fold dilution): 10 mM water),NF-kB SEAP reporter activity,RAW-Dual [1]; agonist: LPS (TLR4) 0.1 ug/mL,1.12
same,NF-kB SEAP reporter activity,RAW-Dual [1]; [4],1.15
same,NF-kB SEAP reporter activity,RAW-Dual [1]; [5],1.16
same,NF-kB SEAP reporter activity,RAW-Dual [1]; [6],1
O=C(O)CCC(O)C(=O)O (centres undefined),NF-kB SEAP reporter activity,"RAW-Dual [2]; library stock concentration (final ~1000-fold dilution): 10 mM water, agonist: Imiquimod (TLR7) […]",0.954
same,NF-kB SEAP reporter activity,"RAW-Dual [2]; library stock concentration (final ~1000-fold dilution): 10 mM water, agonist: MPLA (TLR4) […]",1.03
CC1=C(C(=O)OCCN(Cc2ccccc2)c2ccccc2)C(c2cccc([N+](=O)[O-])c2)C(P2(=O)OCC(C)(C)CO2)=C(C)N1 (centres undefined) (library stock concentration (final ~1000-fold dilution): 10 mM),NF-kB SEAP reporter activity,RAW-Dual [1]; agonist: LPS (TLR4) 0.1 ug/mL,0.716
same,NF-kB SEAP reporter activity,RAW-Dual [1]; [4],0.512
same,NF-kB SEAP reporter activity,RAW-Dual [1]; [5],0.346
same,NF-kB SEAP reporter activity,RAW-Dual [1]; [6],0.213
CC1=C(C(=O)OCCN(Cc2ccccc2)c2ccccc2)C(c2cccc([N+](=O)[O-])c2)C(P2(=O)OCC(C)(C)CO2)=C(C)N1 (centres undefined),NF-kB SEAP reporter activity,RAW-Dual [2]; [7],0.694
CCCNS(=O)(=O)Nc1ncnc(OCCOc2ncc(Br)cn2)c1-c1ccc(Br)cc1,NF-kB SEAP reporter activity,RAW-Dual [2]; [8],0.928
same,NF-kB SEAP reporter activity,RAW-Dual [2]; [7],1.03
CCCNS(=O)(=O)Nc1ncnc(OCCOc2ncc(Br)cn2)c1-c1ccc(Br)cc1 (library stock concentration (final ~1000-fold dilution): 10 mM),NF-kB SEAP reporter activity,RAW-Dual [1]; agonist: LPS (TLR4) 0.1 ug/mL,1.37
same,NF-kB SEAP reporter activity,RAW-Dual [1]; [4],0.935
same,NF-kB SEAP reporter activity,RAW-Dual [1]; [5],0.789
same,NF-kB SEAP reporter activity,RAW-Dual [1]; [6],0.859
CCC(C)(Nc1ccnc(-c2c[nH]c3ncccc23)n1)C(=O)NCC(F)(F)F (centres undefined),NF-kB SEAP reporter activity,RAW-Dual [2]; [8],1.14
same,NF-kB SEAP reporter activity,RAW-Dual [2]; [7],1.13
CCC(C)(Nc1ccnc(-c2c[nH]c3ncccc23)n1)C(=O)NCC(F)(F)F (centres undefined) (library stock concentration (final ~1000-fold dilution): 10 mM),NF-kB SEAP reporter activity,RAW-Dual [1]; agonist: LPS (TLR4) 0.1 ug/mL,0.766
same,NF-kB SEAP reporter activity,RAW-Dual [1]; [4],0.885
same,NF-kB SEAP reporter activity,RAW-Dual [1]; [5],1.21
same,NF-kB SEAP reporter activity,RAW-Dual [1]; [6],2.06
CCOC(=O)CCNc1cc(N2CCc3ccccc3CC2)nc(-c2ccccn2)n1.Cl,NF-kB SEAP reporter activity,RAW-Dual [2]; [8],0.922
same,NF-kB SEAP reporter activity,RAW-Dual [2]; [7],0.949
CCOC(=O)CCNc1cc(N2CCc3ccccc3CC2)nc(-c2ccccn2)n1.Cl (library stock concentration (final ~1000-fold dilution): 10 mM),NF-kB SEAP reporter activity,RAW-Dual [1]; agonist: LPS (TLR4) 0.1 ug/mL,1.02
same,NF-kB SEAP reporter activity,RAW-Dual [1]; [4],0.883
same,NF-kB SEAP reporter activity,RAW-Dual [1]; [5],0.943
same,NF-kB SEAP reporter activity,RAW-Dual [1]; [6],0.66
COC(=O)c1c2c(c3ccccc3c1O)OC(C)(C)C=C2 (library stock concentration (final ~1000-fold dilution): 10 mM),NF-kB SEAP reporter activity,RAW-Dual [1]; agonist: LPS (TLR4) 0.1 ug/mL,1.05
same,NF-kB SEAP reporter activity,RAW-Dual [1]; [4],0.712
same,NF-kB SEAP reporter activity,RAW-Dual [1]; [5],0.77
same,NF-kB SEAP reporter activity,RAW-Dual [1]; [6],0.94
COC(=O)c1c2c(c3ccccc3c1O)OC(C)(C)C=C2,NF-kB SEAP reporter activity,RAW-Dual [2]; [8],0.736
same,NF-kB SEAP reporter activity,RAW-Dual [2]; [7],1.01
CCCCN1CCCCC1C(=O)Nc1c(C)cccc1C.Cl (centres undefined),NF-kB SEAP reporter activity,RAW-Dual [2]; [8],0.94
same,NF-kB SEAP reporter activity,RAW-Dual [2]; [7],1.06
CCCCN1CCCCC1C(=O)Nc1c(C)cccc1C.Cl (centres undefined) (library stock concentration (final ~1000-fold dilution): 10 mM),NF-kB SEAP reporter activity,RAW-Dual [1]; agonist: LPS (TLR4) 0.1 ug/mL,1.36
same,NF-kB SEAP reporter activity,RAW-Dual [1]; [4],0.951
same,NF-kB SEAP reporter activity,RAW-Dual [1]; [5],0.981
same,NF-kB SEAP reporter activity,RAW-Dual [1]; [6],1.04
COc1ccc(/C=C/C(=O)C2(C(=O)/C=C/c3ccc(OC)c(OC)c3)CCCCC2)cc1OC,NF-kB SEAP reporter activity,RAW-Dual [2]; [8],0.45
same,NF-kB SEAP reporter activity,RAW-Dual [2]; [7],0.581
COc1ccc(/C=C/C(=O)C2(C(=O)/C=C/c3ccc(OC)c(OC)c3)CCCCC2)cc1OC (library stock concentration (final ~1000-fold dilution): 10 mM),NF-kB SEAP reporter activity,RAW-Dual [1]; agonist: LPS (TLR4) 0.1 ug/mL,0.367
same,NF-kB SEAP reporter activity,RAW-Dual [1]; [4],1.21
same,NF-kB SEAP reporter activity,RAW-Dual [1]; [5],0.228
same,NF-kB SEAP reporter activity,RAW-Dual [1]; [6],0.208
Cn1c(=O)c2c(ncn2CC(O)CO)n(C)c1=O (centres undefined),NF-kB SEAP reporter activity,RAW-Dual [2]; [8],0.966
same,NF-kB SEAP reporter activity,RAW-Dual [2]; [7],1.02
Cn1c(=O)c2c(ncn2CC(O)CO)n(C)c1=O (centres undefined) (library stock concentration (final ~1000-fold dilution): 10 mM),NF-kB SEAP reporter activity,RAW-Dual [1]; agonist: LPS (TLR4) 0.1 ug/mL,1.2
same,NF-kB SEAP reporter activity,RAW-Dual [1]; [4],1.15
same,NF-kB SEAP reporter activity,RAW-Dual [1]; [5],1.03
same,NF-kB SEAP reporter activity,RAW-Dual [1]; [6],1.12
Nc1nccs1,NF-kB SEAP reporter activity,RAW-Dual [2]; [8],0.921
same,NF-kB SEAP reporter activity,RAW-Dual [2]; [7],1.08
Nc1nccs1 (library stock concentration (final ~1000-fold dilution): 10 mM),NF-kB SEAP reporter activity,RAW-Dual [1]; agonist: LPS (TLR4) 0.1 ug/mL,1.18
same,NF-kB SEAP reporter activity,RAW-Dual [1]; [4],0.997
same,NF-kB SEAP reporter activity,RAW-Dual [1]; [5],1.16
same,NF-kB SEAP reporter activity,RAW-Dual [1]; [6],1.1
O=S(=O)(NC1CCNCC1)c1cc(S(=O)(=O)c2ccccc2)ccc1C(F)(F)F (library stock concentration (final ~1000-fold dilution): 10 mM),NF-kB SEAP reporter activity,RAW-Dual [1]; agonist: LPS (TLR4) 0.1 ug/mL,0.949
same,NF-kB SEAP reporter activity,RAW-Dual [1]; [4],0.764
same,NF-kB SEAP reporter activity,RAW-Dual [1]; [5],0.923
same,NF-kB SEAP reporter activity,RAW-Dual [1]; [6],0.978
O=S(=O)(NC1CCNCC1)c1cc(S(=O)(=O)c2ccccc2)ccc1C(F)(F)F,NF-kB SEAP reporter activity,RAW-Dual [2]; [8],0.912
same,NF-kB SEAP reporter activity,RAW-Dual [2]; [7],1.07
NC(=O)c1cccnc1 (library stock concentration (final ~1000-fold dilution): 10 mM),NF-kB SEAP reporter activity,RAW-Dual [1]; agonist: LPS (TLR4) 0.1 ug/mL,1
same,NF-kB SEAP reporter activity,RAW-Dual [1]; [4],1.03
same,NF-kB SEAP reporter activity,RAW-Dual [1]; [5],1.03
same,NF-kB SEAP reporter activity,RAW-Dual [1]; [6],1.08
NC(=O)c1cccnc1,NF-kB SEAP reporter activity,RAW-Dual [2]; [8],0.934
same,NF-kB SEAP reporter activity,RAW-Dual [2]; [7],1.02
O=C(/C=C/c1ccccc1)NC(NC(=S)Nc1ccc(Cl)cc1)C(Cl)(Cl)Cl (centres undefined) (library stock concentration (final ~1000-fold dilution): 10 mM),NF-kB SEAP reporter activity,RAW-Dual [3],2.64
CN(C)CCC(CSc1ccccc1)Nc1ccc(S(=O)(=O)NC(=O)c2ccc(N3CCN(Cc4ccccc4-c4ccc(Cl)cc4)CC3)cc2)cc1[N+](=O)[O-] (centres undefined),NF-kB SEAP reporter activity,RAW-Dual [2]; [8],0.28
same,NF-kB SEAP reporter activity,RAW-Dual [2]; [7],0.466
CN(C)CCC(CSc1ccccc1)Nc1ccc(S(=O)(=O)NC(=O)c2ccc(N3CCN(Cc4ccccc4-c4ccc(Cl)cc4)CC3)cc2)cc1[N+](=O)[O-] (centres undefined) (library stock concentration (final ~1000-fold dilution): 10 mM),NF-kB SEAP reporter activity,RAW-Dual [1]; agonist: LPS (TLR4) 0.1 ug/mL,0.429
same,NF-kB SEAP reporter activity,RAW-Dual [1]; [4],0.272
same,NF-kB SEAP reporter activity,RAW-Dual [1]; [5],0.164
same,NF-kB SEAP reporter activity,RAW-Dual [1]; [6],0.223

# Source: the supplement of paper PMC10037445
